# Source: PubChem BioAssay AID1625 (Sanford-Burnham Center for Chemical Genomics, 2009)
# Where “and” joins values, the source holds several entries; their conditions need not be identical. Equal entries are not always repeated. Some of the results follow. Further columns of the screen follow, without active or inactive calls. Most of these compounds were active or inconclusive in the main read-out, so they are no random draw.
# Test: insulin promoter activators in MIN6 cells, imaging, high-content screening, mouse beta cells (AID 1625);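 further: total cells summed across four imaged fields per well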
# Details: MIN6 insulin promoter-GFP reporter, measured here: cytotoxicity, nuclei count, at 5 µM
row,SMILES,cell count
1,O=C1Nc2ccc(Br)cc2C12NNc1ccccc1O2 (stereo not given),1140 cells
2,Cn1c(=O)oc2cc(S(=O)(=O)NCc3ccncc3)ccc21,496 cells
3,C=C(CO)C1Cc2cc(C(C)=O)ccc2O1 (stereo not given),165 cells
4,Cc1ccc(NCCC(=O)c2cccc([N+](=O)[O-])c2)cc1,397 cells
5,CC[n+]1ccc(/C=C/c2ccc(N(C)C)cc2)c2ccccc21,248 cells
6,COc1cccc(C(=O)CN2C(=O)C(C)(C)Oc3ccc(C(=O)N4CCCCCC4)cc32)c1,989 cells
7,CCCN1C(=O)/C(=C\C=C2\N(CC)c3ccccc3C2(C)C)SC1=S,1180 cells
8,Cc1sc2ncnc(NCC(C)(C)N3CCOCC3)c2c1C,363 cells
9,COc1ccc(N2CCN(C(=O)CSc3nnc(-c4cccnc4)n3-c3ccccc3)CC2)cc1,448 cells
10,O=C1C(Cl)=C(Nc2ccccc2)C(=O)c2ccccc21,199 cells
11,COc1ccccc1/C=C/C(=O)/C=C/c1ccccc1O,448 cells
12,Clc1ccc2nnnc(-c3ccccc3)c2c1,448 cells
13,COc1cc(OC)c(OC)cc1/C=C1\Oc2cc(OS(C)(=O)=O)ccc2C1=O,1120 cells
14,COc1ccccc1-n1c(-c2ccccc2)c[n+]2c1CCc1ccccc1-2,370 cells
15,CC(=O)Nc1nc(-c2ccc(Br)s2)cs1,1070 cells
16,COc1ccc(C2C(C(=O)c3ccccc3)=C(C)Nc3nc4ccccc4n32)c(OC)c1 (stereo not given),1180 cells
17,Cc1ccc(-c2c[n+](CC(=O)c3ccc(Br)cc3)c3n2CCCCC3)cc1,287 cells
18,CC1CCCN(CCOCCSc2ccccc2)C1 (stereo not given),456 cells
19,CCOc1ncccc1C(=O)NCc1ccccc1,446 cells
20,Cc1ccc(N2C(=O)c3cccc4c(N)ccc(c34)C2=O)c2cccnc12,453 cells
21,CC(=Nc1ccc(C)cc1C)c1sc2ccccc2c1O,1600 cells
22,COc1ccccc1N1CCN(C/C(O)=C(\C#N)c2nc(-c3ccccc3)cs2)CC1,1010 cells
23,CC1(C)CC(=O)c2cc(C(=O)N3CCCC(C)(C)C3)c(=O)n(-c3ccccc3)c2C1,419 cells
24,CCCCNC(=O)/C(C#N)=c1\s/c(=C\c2ccccc2OC(F)F)c(=O)n1CCCOC,1420 cells
25,CCOc1ccc2[nH]c(=O)c(CN(CCc3ccccc3)C(=O)N3CCOCC3)cc2c1,1340 cells
26,CC1(C)c2ccccc2N2CC(=O)NC21/C=C/c1ccco1 (stereo not given),1290 cells
27,CCOC(=O)c1c(-c2ccc(C)o2)csc1NC(=O)CN1CCN(CC)CC1,446 cells

row,SMILES,cell count
1,CCN(CC)CCCN(Cc1cc2cc(OC)ccc2[nH]c1=O)C(=O)Nc1ccc(F)cc1,428 cells
2,CC1CCCCC1NC(=O)COC(=O)c1c2c(nc3ccccc13)/C(=C/c1ccco1)CC2 (stereo not given),1160 cells
3,CCCCNc1nc2c(c(=O)n(C)c(=O)n2C)n1Cc1cccc(OC)c1,387 cells
4,C=CCSc1nnc(C)c(/C=C/Nc2ccc(Cl)cc2)n1,1300 cells
5,O=C(/C=C/c1ccc2ccccc2n1)c1cc(Br)ccc1O,1310 cells
6,COc1ccc(CNc2cc(C)nc3ncnn23)c(OC)c1,489 cells
7,COc1ccccc1NC(=O)C1=C(C)NC(SCC(=O)c2ccc(C)cc2)=C(C#N)C1c1ccco1 (stereo not given),836 cells
8,COc1cccc(/C=N/Nc2nc(Nc3ccccc3)nc(-n3nc(C)cc3C)n2)c1O,186 cells
9,CCOc1ccc(-n2c(-c3ccc(OC)cc3)c[n+]3c2CCCCC3)cc1,446 cells
10,Cc1c(C(=O)O)cccc1-c1ccc(/C=C2/NC(=O)N(c3ccccc3)C2=O)o1,1480 cells
11,CCN(CC)c1ccc2cc(/C(N)=N/NC(=O)c3cccs3)c(=O)oc2c1,1060 cells
12,Cc1ccc(CNC(=O)c2nn(C)c(C)c2[N+](=O)[O-])cc1,365 cells
13,CC1(C)Cc2c(C#N)c(N3CCN(C(=O)c4ccco4)CC3)nc(-c3ccco3)c2CS1,344 cells
14,CCOc1cc(N(CC)CC)ccc1/C=C(/C#N)c1nc2ccccc2[nH]1,1100 cells
15,COc1ccc2cc3cc(C(=O)NCc4ccccn4)oc3nc2c1,1430 cells
16,O=C(C1CC(c2ccc(F)cc2)=NO1)N1CCN(Cc2ccccc2)CC1 (stereo not given),301 cells
17,COc1ccccc1N1CCN(/N=C/c2c(C)nn(-c3ccccc3)c2C)CC1,423 cells
18,COc1ccc(CNC[C@@H](CCCCN(C)Cc2ccc(OC)cc2)N2C[C@H](c3ccccc3)N(CCc3ccc(Cl)c(Cl)c3)C(=O)C2=O)cc1,309 cells
19,CCN(CC)c1ccc2cc(-c3nc4ccccc4[nH]3)c(=O)oc2c1,1580 cells
20,O=C(O)c1cc(-c2ccc(/C=C3/SC(=S)N(Cc4ccccc4)C3=O)o2)ccc1Cl,1080 cells
21,CC1CCc2onc(C(=O)O)c2C1 (stereo not given),452 cells
22,CCN1/C(=C/c2ccc3ccccc3[n+]2CC)C=Cc2ccccc21,198 cells
23,CCCNC(=S)NC1CC2CCCC(C1)N2CC(C)C (stereo not given),481 cells
24,O=c1cc(CSc2nnc(-c3cccs3)n2Cc2ccccc2)nc2sc3ccccc3n12,204 cells
25,CC(C)N1CC=C2C(C#N)=C(N)C(C#N)(C#N)[C@H](c3ccoc3)[C@H]2C1,1230 cells
26,Cc1nn(-c2ccc(F)cc2)c2nc(N)c(C#N)c(-c3cccs3)c12,454 cells
27,CCOC(=O)N1CCN(C(=O)NC2CCCCC2)CC1,1510 cells

row,SMILES,cell count
1,CCCNc1c(F)c(F)c2c(C)c3ccccc3nc2c1F,1670 cells
2,COc1ccc(-n2c(-c3ccccc3)c[n+]3c2CCC3)cc1,380 cells
3,Cc1ccc(-c2nn(CCC#N)cc2C=C(C#N)C#N)cc1,435 cells
4,COC(=O)C1=C(N)n2c(s/c(=C\c3cccnc3)c2=O)=C(C(=O)OC)C1c1cccnc1 (stereo not given),1050 cells
5,CC1CCCC(C)N1C(=O)CSc1nnc(-c2cccs2)o1 (stereo not given),1340 cells
6,S=C(NNc1ccnc2cc(Cl)ccc12)Nc1ccccc1Cl,352 cells
7,Cc1ccc(C(=O)NCCCn2ccnc2)cc1[N+](=O)[O-],1500 cells
8,CC1CCC(NC(=O)C2CCC(CNS(=O)(=O)c3cccc4nsnc34)CC2)CC1 (stereo not given),452 cells
9,CCOC(=O)c1cnn(-c2cc(C)nc3c(-c4ccccc4)cnn23)c1N,899 cells
10,COc1ccc(CN2CCN(C(=O)C3CC(=O)N(C4CCCCCC4)C3)CC2)c(OC)c1OC (stereo not given),468 cells
11,CCc1ccc(C(=O)NN(C(=O)c2ccc(CC)cc2)C(C)(C)C)cc1,348 cells
12,CN1\C(=C/C=C/C=C/C=[N+](C)C)C(C)(C)c2ccccc21,410 cells
13,CCOc1ccc(C(=O)Nc2cc(C)c3c(=O)oc4ccccc4c3n2)cc1,413 cells
14,CN1CC=C2C(C#N)=C(N)C(C#N)(C#N)C(c3cccc(Cl)c3Cl)C2C1 (stereo not given),1150 cells
15,Cc1cc(N2C(=O)c3ccccc3C2=O)n(C)n1,1420 cells
16,C=C1C(=O)C=C2CN(C(=O)c3ccccc3)[C@@](Cc3ccc(F)cc3)(C(=O)OC)[C@@H]12,200 cells
17,CCCNC(=O)N1CCN(c2nc(C(C)C)c3c(c2C#N)CC(C)(C)OC3)CC1,498 cells
18,COc1cccc2c(=O)n(CC(=O)Nc3cccc(F)c3)ccc12,743 cells
19,COc1ccc(C)cc1N1C(=N)/C(=C2/Nc3ccccc3S2)C(c2ccccc2)C1=O (stereo not given),467 cells
20,FC(F)Oc1ccc(-n2cc(-c3ccccc3)[n+]3c2CCCCC3)cc1,463 cells
21,c1csc(-c2csc3ncnc(NCCCN4CCOCC4)c23)c1,472 cells
22,CCCCCc1ccc(OCCCC[n+]2cccc(C)c2)c(CCCCC)c1,400 cells
23,CC[n+]1c(/C=C/N(C)c2ccccc2)oc2ccc(F)cc21,231 cells
24,CCOC(=O)c1cc2c(C)n(-c3ccc(C)cc3)c(C)c2ccc1=O,305 cells
25,Cc1ccc(-c2cc3cccc[n+]3cc2-c2ccc(C)cc2)cc1,225 cells
26,O=C(Nc1ccc(S(=O)(=O)N2CCCCC2)cc1)c1ccc(CN2CCc3ccccc3C2)cc1,304 cells
27,CNC(=O)C1CC(=O)N/C(=N/N=C(\C)c2cccs2)S1 (stereo not given),1680 cells

row,SMILES,cell count
1,c1ccc(CSC2=NNC(c3ccccn3)S2)cc1 (stereo not given),481 cells
2,Cc1ccc(C[n+]2cccc(-c3ccccc3)c2)c(C)c1,315 cells
3,CCCN1C(=O)S/C(=C\c2ccc(N3CCOCC3)o2)C1=O,1310 cells
4,Cc1ccc(-c2cn(-c3ccccc3)c3[n+]2CCCS3)cc1,295 cells and 232 cells
5,CN1C(=S)N(c2cccnc2)C(=O)/C1=C\c1ccc(N(C)C)cc1,1430 cells
6,C#CC(=O)N(c1ccc(OC)cc1OC)C(C(=O)NC1CCCC1)c1cccs1 (stereo not given),490 cells
7,CCN1CCN(Cc2ccc(NC(=O)c3ccc(C)c(NC(=O)c4c[nH]c5cc(C(F)(F)F)ccc5c4=O)c3)cc2C(F)(F)F)CC1,200 cells
8,Cc1noc(/C=C/c2ccc(-c3ccccc3Cl)o2)c1[N+](=O)[O-],1260 cells
9,CN(C)c1ccc(/C=C/c2ccc3ccccc3n2)cc1,1470 cells
10,COc1ccc(N(CC(=O)NC2CCCC2)S(=O)(=O)c2c(C)[nH]c(=O)[nH]c2=O)cc1,292 cells
11,COc1cc(/C=N/NC(=O)CSc2ccccn2)ccc1O,296 cells
12,COc1ccc(N/N=C/c2c(C(=O)O)ccc3ccccc23)cc1,409 cells
13,Cc1cccc(OCc2nnc(SCC(=O)Nc3cccc(C(=O)N4CCOCC4)c3)o2)c1C,371 cells
14,c1ccc(-c2c[n+]3c(n2-c2ccccc2)CCC3)cc1,496 cells
15,Nc1ccc2c(c1)CC(=O)c1ccccc1S2,433 cells
16,O=C(Nc1nc(-c2ccccn2)cs1)c1ccc(S(=O)(=O)N2CCCCC2)cc1,396 cells
17,N=c1c2c(n(Cc3ccc(Br)cc3)c3c1CCC3)CCCC2,340 cells
18,OCCCNc1nccc(-c2cc(Nc3cccc(Cl)c3)ncn2)n1,484 cells
19,COc1ccc(C=C2c3ccccc3C(=O)c3ccccc32)c(OC)c1,498 cells
20,CCCCCCCn1ccc(=N)cc1,250 cells
21,COCCN1CN(S(=O)(=O)c2ccccc2)c2nc3ccccc3nc21,1160 cells
22,Cc1ccc(/C=[N+](\[O-])c2ccc(N(C)C)cc2)c2nsnc12,1240 cells
23,O=C(Nc1ccc(N2CCCCC2)cc1)c1cccnc1,1240 cells
24,C#CCOCCOCCOCCNc1nc(N2CCN(C(=O)[C@H]([C@@H](C)O)n3cc(CCCCN)nn3)CC2)nc(N2CCN(C(=O)[C@H]([C@@H](C)CC)n3cc(CCCN=C(N)N)nn3)CC2)n1,410 cells
